Laboratory results from the supplement of paper PMC8728848.
Some of the results follow.

How the values were obtained:
Assay in all cases: glycan array binding signal (z-score within array); higher = stronger binding
Settings in all cases: glycan notation: IUPAC condensed, linker removed
[1] = target: Neu5Ac(a2-6)Gal(b1-4)GlcNAc(b1-3)Gal(b1-4)GlcNAc(b1-3)Gal(b1-4)GlcNAc(b1-2)Man(a1-3)[Neu5Ac(a2-6)Gal(b1-4)GlcNAc(b1-3)Gal(b1-4)GlcNAc(b1-3)Gal(b1-4)GlcNAc(b1-2)Man(a1-6)]GalNAc
Summary of the method: (§1)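 Columns mapping to the same glycan were averaged after glycan names were converted to IUPAC-condensed notation. The data come from 3228 arrays in the Consortium for Functional Glycomics database, limited to those with an available protein sequence. Binding is reported as a within-array Z-score averaged across arrays of one protein sequence and across linkers.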

[2] = target: Neu5Ac(a2-6)Gal(b1-4)GlcNAc(b1-3)Gal(b1-4)GlcNAc(b1-3)GalNAc
Summary of the method: as §1

[3] = target: Neu5Ac(a2-6)Gal(b1-4)GlcNAc(b1-3)Gal(b1-4)GlcNAc(b1-3)[Neu5Ac(a2-6)Gal(b1-4)GlcNAc(b1-3)Gal(b1-4)GlcNAc(b1-6)]GalNAc
Summary of the method: as §1

[4] = target: Neu5Ac(a2-6)Gal(b1-4)GlcNAc(b1-3)Gal(b1-4)GlcNAc(b1-6)[Gal(b1-3)]GalNAc
Summary of the method: as §1

[5] = target: Neu5Ac(a2-6)Gal(b1-4)GlcNAc(b1-3)Gal(b1-4)[Fuc(a1-3)]GlcNAc(b1-3)Gal(b1-4)[Fuc(a1-3)]GlcNAc
Summary of the method: as §1

[6] = target: Neu5Ac(a2-6)Gal(b1-4)GlcNAc(b1-3)GalNAc
Summary of the method: as §1

[7] = target: Neu5Ac(a2-6)Gal(b1-4)GlcNAc(b1-3)[Neu5Ac(a2-6)Gal(b1-4)GlcNAc(b1-6)]GalNAc
Summary of the method: as §1

[8] = target: Neu5Ac(a2-6)Gal(b1-4)GlcNAc(b1-6)GalNAc
Summary of the method: as §1

[9] = target: Neu5Ac(a2-6)Gal(b1-4)GlcNAc(b1-6)[Gal(b1-3)GlcNAc(b1-3)]Gal(b1-4)Glc
Summary of the method: as §1

[10] = target: Neu5Ac(a2-6)Gal(b1-4)GlcNAc(b1-6)[Gal(b1-3)]GalNAc
Summary of the method: as §1

[11] = target: Neu5Ac(a2-6)Gal(b1-4)GlcNAc6S
Summary of the method: as §1

Neu5Ac(a2-6)GalNAc = target: Neu5Ac(a2-6)GalNAc
Summary of the method: as §1

[12] = target: Neu5Ac(a2-6)GalNAc(b1-4)GlcNAc
Summary of the method: as §1

[13] = target: Neu5Ac(a2-6)GalNAc(b1-4)GlcNAc6S
Summary of the method: as §1

[14] = target: Neu5Ac(a2-6)GlcNAc(b1-4)GlcNAc
Summary of the method: as §1

[15] = target: Neu5Ac(a2-6)GlcNAc(b1-4)GlcNAc(b1-4)GlcNAc
Summary of the method: as §1

Neu5Ac(a2-8)Neu5Ac = target: Neu5Ac(a2-8)Neu5Ac
Summary of the method: as §1

[16] = target: Neu5Ac(a2-8)Neu5Ac(a2-3)Gal(b1-3)GalNAc(b1-4)[Neu5Ac(a2-3)]Gal(b1-4)Glc
Summary of the method: as §1

[17] = target: Neu5Ac(a2-8)Neu5Ac(a2-3)Gal(b1-3)GalNAc(b1-4)[Neu5Ac(a2-8)Neu5Ac(a2-3)]Gal(b1-4)Glc
Summary of the method: as §1

[18] = target: Neu5Ac(a2-8)Neu5Ac(a2-3)Gal(b1-4)Glc
Summary of the method: as §1

[19] = target: Neu5Ac(a2-8)Neu5Ac(a2-3)Gal(b1-4)GlcNAc
Summary of the method: as §1

[20] = target: Neu5Ac(a2-8)Neu5Ac(a2-3)[Gal(b1-3)GalNAc(b1-4)]Gal(b1-4)Glc
Summary of the method: as §1

[21] = target: Neu5Ac(a2-8)Neu5Ac(a2-3)[GalNAc(b1-4)]Gal(b1-4)Glc
Summary of the method: as §1

[22] = target: Neu5Ac(a2-8)Neu5Ac(a2-8)Neu5Ac
Summary of the method: as §1

[23] = target: Neu5Ac(a2-8)Neu5Ac(a2-8)Neu5Ac(a2-3)Gal(b1-4)Glc
Summary of the method: as §1

[24] = target: Neu5Ac(a2-8)Neu5Ac(a2-8)Neu5Ac(a2-3)[Gal(b1-3)GalNAc(b1-4)]Gal(b1-4)Glc
Summary of the method: as §1

[25] = target: Neu5Ac(a2-8)Neu5Ac(a2-8)Neu5Ac(a2-3)[GalNAc(b1-4)]Gal(b1-4)Glc
Summary of the method: as §1

[26] = target: Neu5Ac(a2-8)Neu5Ac(a2-8)Neu5Ac(a2-8)Neu5Ac(a2-3)[GalNAc(b1-4)]Gal(b1-4)Glc
Summary of the method: as §1

[27] = target: Neu5Ac(a2-8)Neu5Gc(a2-3)Gal(b1-4)GlcNAc
Summary of the method: as §1

[28] = target: Neu5Ac(b2-6)Gal(b1-4)GlcNAc
Summary of the method: as §1

Neu5Ac(b2-6)GalNAc = target: Neu5Ac(b2-6)GalNAc
Summary of the method: as §1

[29] = target: Neu5Ac9Ac(a2-3)Gal(b1-3)GlcNAc
Summary of the method: as §1

[30] = target: Neu5Ac9Ac(a2-3)Gal(b1-4)GlcNAc
Summary of the method: as §1

[31] = target: Neu5Ac9Ac(a2-6)Gal(b1-4)GlcNAc
Summary of the method: as §1

[32] = target: Neu5Gc(a2-3)Gal(b1-3)GlcNAc
Summary of the method: as §1

[33] = target: Neu5Gc(a2-3)Gal(b1-3)[Fuc(a1-4)]GlcNAc
Summary of the method: as §1

Neu5Gc(a2-3)Gal(b1-4)Glc = target: Neu5Gc(a2-3)Gal(b1-4)Glc
Summary of the method: as §1

[34] = target: Neu5Gc(a2-3)Gal(b1-4)GlcNAc
Summary of the method: as §1

[35] = target: Neu5Gc(a2-3)Gal(b1-4)GlcNAc(b1-3)Gal(b1-4)GlcNAc(b1-2)Man(a1-3)[Neu5Gc(a2-3)Gal(b1-4)GlcNAc(b1-3)Gal(b1-4)GlcNAc(b1-2)Man(a1-6)]Man(b1-4)GlcNAc(b1-4)GlcNAc
Summary of the method: as §1

[36] = target: Neu5Gc(a2-3)Gal(b1-4)[Fuc(a1-3)]GlcNAc
Summary of the method: as §1

[37] = target: Neu5Gc(a2-6)Gal(b1-4)GlcNAc
Summary of the method: as §1

Neu5Gc(a2-6)GalNAc = target: Neu5Gc(a2-6)GalNAc
Summary of the method: as §1

[38] = target: Neu5Gc(a2-8)Neu5Ac(a2-3)Gal(b1-4)GlcNAc
Summary of the method: as §1

[39] = target: Neu5Gc(a2-8)Neu5Gc(a2-3)Gal(b1-4)GlcNAc
Summary of the method: as §1

[40] = target: Neu5Gc(a2-8)Neu5Gc(a2-3)Gal(b1-4)GlcNAc(b1-3)Gal(b1-4)GlcNAc
Summary of the method: as §1

[41] = target: Neu5Gc(a2-8)Neu5Gc(a2-6)Gal(b1-4)GlcNAc
Summary of the method: as §1

[42] = target: Neu5Gc(b2-6)Gal(b1-4)GlcNAc
Summary of the method: as §1

B1: Epa3 (Candida glabrata), Q6VBI8_CANGB (protein)
chain: MGSSHHHHHHSSGLVPRGSHMNDLGFSLFEKRELSSQNPFGYPIGCSPQDVAIIPGLTMELYSYPIVSGTPPNCYDASYVDPEYPRTGYLKRKMVGKSTGVTGNLNYKYSVEKACMVKYGNLPAGYNYNEPLTVSNFTMILYGYFKAQTTGLHTFFVNADDLLYINFGAGNAFDCCKREDSKTKLGEYVAYDIWHVDSSKNKVSLFLEKDLYYPIRMFFNNIGKDSSLDLSFSVNGATDQISDFSGYLYSVPDQPDTCPAHIGYDTTCR
glycan array binding signal (z-score) [1]: 1.58
glycan array binding signal (z-score) [2]: -0.1
glycan array binding signal (z-score) [3]: 0.367
glycan array binding signal (z-score) [4]: 0.471
glycan array binding signal (z-score) [5]: -0.258
glycan array binding signal (z-score) [6]: 0.109
glycan array binding signal (z-score) [7]: -0.227
glycan array binding signal (z-score) [8]: 0.116
glycan array binding signal (z-score) [9]: -0.2
glycan array binding signal (z-score) [10]: 0.501
glycan array binding signal (z-score) [11]: -0.29
glycan array binding signal (z-score) (Neu5Ac(a2-6)GalNAc): -0.17
glycan array binding signal (z-score) [12]: -0.366
glycan array binding signal (z-score) [13]: -0.236
glycan array binding signal (z-score) [14]: -0.144
glycan array binding signal (z-score) [15]: -0.206
glycan array binding signal (z-score) (Neu5Ac(a2-8)Neu5Ac): -0.199
glycan array binding signal (z-score) [16]: -0.199
glycan array binding signal (z-score) [17]: -0.06
glycan array binding signal (z-score) [18]: -0.393
glycan array binding signal (z-score) [19]: -0.248
glycan array binding signal (z-score) [20]: 2.2
glycan array binding signal (z-score) [21]: -0.293
glycan array binding signal (z-score) [22]: -0.342
glycan array binding signal (z-score) [23]: -0.294
glycan array binding signal (z-score) [24]: 0.035
glycan array binding signal (z-score) [25]: -0.322
glycan array binding signal (z-score) [26]: -0.225
glycan array binding signal (z-score) [27]: -0.229
glycan array binding signal (z-score) [28]: -0.337
glycan array binding signal (z-score) (Neu5Ac(b2-6)GalNAc): -0.152
glycan array binding signal (z-score) [29]: -0.211
glycan array binding signal (z-score) [30]: -0.305
glycan array binding signal (z-score) [31]: -0.117
glycan array binding signal (z-score) [32]: -0.244
glycan array binding signal (z-score) [33]: -0.15
glycan array binding signal (z-score) (Neu5Gc(a2-3)Gal(b1-4)Glc): -0.127
glycan array binding signal (z-score) [34]: -0.387
glycan array binding signal (z-score) [35]: 0.132
glycan array binding signal (z-score) [36]: -0.159
glycan array binding signal (z-score) [37]: -0.31
glycan array binding signal (z-score) (Neu5Gc(a2-6)GalNAc): -0.066
glycan array binding signal (z-score) [38]: -0.369
glycan array binding signal (z-score) [39]: -0.277
glycan array binding signal (z-score) [40]: -0.19
glycan array binding signal (z-score) [41]: -0.25
glycan array binding signal (z-score) [42]: 0.151
